Results are given in words; binding and its absence hold for the method and conditions named. For part of these data: Binding seen in cells or lysates may run through a third protein. Some entries that bind do so weakly or less than the wild type.
Assays:
[1] = target: p21, endogenous in HEK293 cells (human (endogenous in HEK293)) (UniProt P38936); assay: co-IP; endogenous p21–Mdm2 complex in HEK293 cells transfected with MPK38 (WT or K40R); immunoblot with anti-Mdm2 antibody
[2] = target: MPK38/MELK, endogenous in HEK293 cells (human (endogenous in HEK293)) (UniProt Q14680); assay: co-IP; endogenous proteins; lysates of HEK293, NIH 3T3 and 3T3-L1 cells immunoprecipitated with anti-MPK38 antibody or rabbit pre-immune serum, immunoblot with anti-p21; HEK293 also with or without H2O2, TNF-α, thapsigargin, ionomycin, TGF-β1, 5-fluorouracil, doxorubicin
HA-CDK4 = HA-CDK4 (UniProt P11802); assay: co-IP; HEK293 cells transiently transfected (48 h), with or without WT or K40R MPK38; lysates immunoprecipitated with anti-HA antibody, immunoblot with anti-FLAG antibody
[3] = target: glutathione S-transferase (GST)-tagged MPK38 (wild type) (mouse) (UniProt Q61846); assay: pull-down; HEK293 cells transiently transfected with MPK38 or p21 deletion constructs; complex measured by immunoblot with anti-FLAG or anti-p21 antibody; capture step not told in the legend
[4] = target: MCAT, N-terminal kinase domain of MPK38 (amino acids 7–269) (mouse) (UniProt Q61846); assay: as above
[5] = target: MPKC, carboxy-terminal domain of MPK38 (amino acids 270–643) (mouse) (UniProt Q61846); assay: as above
[6] = target: peroxisome proliferator-activated receptor γ (PPARγ), transfected (UniProt P37231); assay: co-IP; exogenous p21 and PPARγ in MEF cells expressing MPK38 (+/+) or not (−/−); complex in the nucleus
[7] = target: peroxisome proliferator-activated receptor γ (PPARγ), transfected (UniProt P37231); assay: co-IP; HEK293 cells transiently transfected; cytosolic fraction; p21-PPARγ complex assessed by immunoblot with anti-FLAG antibody
[8] = target: peroxisome proliferator-activated receptor γ (PPARγ), transfected (UniProt P37231); assay: co-IP; HEK293 cells transiently transfected; nuclear fraction; p21-PPARγ complex assessed by immunoblot with anti-FLAG antibody
[9] = target: glutathione S-transferase (GST)-tagged MPK38 (wild type) (mouse) (UniProt Q61846); assay: pull-down; HEK293 cells co-transfected; GST-tagged MPK38 purified on glutathione-sepharose beads (GST purification); immunoblot with anti-FLAG antibody
[10] = target: GST-tagged recombinant MCAT (MPK38 amino acids 7–269) (mouse) (UniProt Q61846); assay: native gel or EMSA; native PAGE (8%); recombinant GST-tagged MPK38 (WT, MCAT or MPKC) incubated with in vitro-translated 35S-labeled p21 at room temperature for 1 h; only the target purified
[11] = target: GST-tagged recombinant MPKC (MPK38 amino acids 270–643) (mouse) (UniProt Q61846); assay: as above
[12] = target: GST-tagged recombinant MPK38 (WT) (mouse) (UniProt Q61846); assay: as above
[13] = target: MPK38, endogenous in NIH 3T3 and 3T3-L1 cells (mouse (endogenous in NIH 3T3 and 3T3-L1)) (UniProt Q61846); assay: co-IP; endogenous proteins; lysates of HEK293, NIH 3T3 and 3T3-L1 cells immunoprecipitated with anti-MPK38 antibody or rabbit pre-immune serum, immunoblot with anti-p21; HEK293 also with or without H2O2, TNF-α, thapsigargin, ionomycin, TGF-β1, 5-fluorouracil, doxorubicin
[14] = target: PPARγ, endogenous in MEF cells (mouse (endogenous in MEF)) (UniProt P37238); assay: co-IP; endogenous p21 and PPARγ in MEF cells expressing MPK38 (+/+) or not (−/−); complex in the nucleus

By UniProt entry, the sequences of proteins in these tests, tags left out. Where a name states a change or a piece, a line headed by the entry shows the natural chain unless it says otherwise. Chains listed by the source or under a name are the forms on record and can include a tag or linker. Residues count along the entry.
UniProt P38936: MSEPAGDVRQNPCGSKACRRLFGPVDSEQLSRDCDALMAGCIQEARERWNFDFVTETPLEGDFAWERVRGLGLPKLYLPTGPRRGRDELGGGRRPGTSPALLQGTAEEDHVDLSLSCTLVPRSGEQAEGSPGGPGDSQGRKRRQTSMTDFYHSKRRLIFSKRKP
UniProt Q14680: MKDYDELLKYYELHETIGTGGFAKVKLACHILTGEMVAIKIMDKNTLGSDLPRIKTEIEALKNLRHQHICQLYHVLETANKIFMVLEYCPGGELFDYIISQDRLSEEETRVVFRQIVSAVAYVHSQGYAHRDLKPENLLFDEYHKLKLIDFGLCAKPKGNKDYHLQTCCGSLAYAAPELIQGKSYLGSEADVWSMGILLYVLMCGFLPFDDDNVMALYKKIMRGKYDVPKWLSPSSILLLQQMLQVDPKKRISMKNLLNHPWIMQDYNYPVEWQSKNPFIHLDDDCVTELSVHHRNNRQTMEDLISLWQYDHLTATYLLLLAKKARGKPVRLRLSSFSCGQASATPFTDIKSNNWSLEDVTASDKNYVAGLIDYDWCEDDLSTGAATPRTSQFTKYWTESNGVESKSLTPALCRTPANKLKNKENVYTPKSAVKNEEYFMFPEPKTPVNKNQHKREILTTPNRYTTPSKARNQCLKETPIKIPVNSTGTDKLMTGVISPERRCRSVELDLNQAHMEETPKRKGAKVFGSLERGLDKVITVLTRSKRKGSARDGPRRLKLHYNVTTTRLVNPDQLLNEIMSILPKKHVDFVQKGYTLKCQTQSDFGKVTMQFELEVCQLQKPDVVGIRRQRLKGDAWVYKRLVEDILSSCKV
UniProt P11802: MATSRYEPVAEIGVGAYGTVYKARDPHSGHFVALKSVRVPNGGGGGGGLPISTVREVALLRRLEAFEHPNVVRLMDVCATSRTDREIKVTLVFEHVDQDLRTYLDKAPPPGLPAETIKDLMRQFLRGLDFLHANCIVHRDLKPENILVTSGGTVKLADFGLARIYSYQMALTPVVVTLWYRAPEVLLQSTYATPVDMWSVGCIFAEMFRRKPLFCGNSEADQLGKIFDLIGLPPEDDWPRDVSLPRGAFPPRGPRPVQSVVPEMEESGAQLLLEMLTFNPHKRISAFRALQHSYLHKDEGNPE
UniProt Q61846: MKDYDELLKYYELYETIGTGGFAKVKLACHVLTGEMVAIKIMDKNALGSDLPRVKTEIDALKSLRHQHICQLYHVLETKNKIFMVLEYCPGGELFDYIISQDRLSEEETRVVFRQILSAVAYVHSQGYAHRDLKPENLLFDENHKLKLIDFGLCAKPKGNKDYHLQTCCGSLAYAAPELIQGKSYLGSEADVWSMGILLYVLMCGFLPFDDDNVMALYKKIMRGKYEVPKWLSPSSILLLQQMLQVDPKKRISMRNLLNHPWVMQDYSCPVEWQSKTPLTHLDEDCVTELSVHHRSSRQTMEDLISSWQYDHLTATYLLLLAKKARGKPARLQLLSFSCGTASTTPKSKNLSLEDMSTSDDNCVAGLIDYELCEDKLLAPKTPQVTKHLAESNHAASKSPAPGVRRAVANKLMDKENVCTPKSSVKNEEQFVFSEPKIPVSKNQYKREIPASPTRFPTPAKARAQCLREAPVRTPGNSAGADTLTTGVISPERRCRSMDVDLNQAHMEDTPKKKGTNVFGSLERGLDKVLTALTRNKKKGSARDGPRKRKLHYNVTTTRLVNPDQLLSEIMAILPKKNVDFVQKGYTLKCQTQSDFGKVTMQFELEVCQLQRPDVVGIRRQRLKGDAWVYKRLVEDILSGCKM
GST-tagged recombinant MCAT (MPK38 amino acids 7–269): residues 7-269 of Q61846
GST-tagged recombinant MPKC (MPK38 amino acids 270–643): residues 270-643 of Q61846
UniProt P37231: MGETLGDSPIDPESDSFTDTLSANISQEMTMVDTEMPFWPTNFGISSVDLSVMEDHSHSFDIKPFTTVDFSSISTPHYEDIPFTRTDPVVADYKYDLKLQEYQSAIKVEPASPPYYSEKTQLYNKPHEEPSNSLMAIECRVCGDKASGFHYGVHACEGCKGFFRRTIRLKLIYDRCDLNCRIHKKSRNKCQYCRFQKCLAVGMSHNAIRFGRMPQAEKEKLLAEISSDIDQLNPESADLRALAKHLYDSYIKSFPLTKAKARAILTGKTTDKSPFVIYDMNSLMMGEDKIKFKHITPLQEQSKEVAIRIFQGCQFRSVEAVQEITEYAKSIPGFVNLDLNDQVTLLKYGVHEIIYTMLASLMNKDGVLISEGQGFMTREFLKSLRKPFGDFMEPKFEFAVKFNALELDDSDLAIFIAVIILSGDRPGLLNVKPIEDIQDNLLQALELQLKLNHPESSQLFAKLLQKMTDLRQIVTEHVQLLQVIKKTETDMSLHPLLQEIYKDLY
UniProt P37238: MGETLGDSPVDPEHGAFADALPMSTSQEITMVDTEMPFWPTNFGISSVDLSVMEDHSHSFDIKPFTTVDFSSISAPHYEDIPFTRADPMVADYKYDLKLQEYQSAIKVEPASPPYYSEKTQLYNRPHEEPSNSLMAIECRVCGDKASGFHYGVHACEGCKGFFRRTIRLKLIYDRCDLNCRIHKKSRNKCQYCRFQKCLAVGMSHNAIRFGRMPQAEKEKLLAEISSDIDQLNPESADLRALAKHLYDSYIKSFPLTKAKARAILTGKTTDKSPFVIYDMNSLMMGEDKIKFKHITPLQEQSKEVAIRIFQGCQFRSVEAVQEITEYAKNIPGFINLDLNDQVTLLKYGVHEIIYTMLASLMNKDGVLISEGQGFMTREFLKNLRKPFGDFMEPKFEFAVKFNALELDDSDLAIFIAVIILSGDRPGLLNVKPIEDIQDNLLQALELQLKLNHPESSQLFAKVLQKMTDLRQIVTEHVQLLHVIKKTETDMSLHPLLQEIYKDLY
UniProt Q00987: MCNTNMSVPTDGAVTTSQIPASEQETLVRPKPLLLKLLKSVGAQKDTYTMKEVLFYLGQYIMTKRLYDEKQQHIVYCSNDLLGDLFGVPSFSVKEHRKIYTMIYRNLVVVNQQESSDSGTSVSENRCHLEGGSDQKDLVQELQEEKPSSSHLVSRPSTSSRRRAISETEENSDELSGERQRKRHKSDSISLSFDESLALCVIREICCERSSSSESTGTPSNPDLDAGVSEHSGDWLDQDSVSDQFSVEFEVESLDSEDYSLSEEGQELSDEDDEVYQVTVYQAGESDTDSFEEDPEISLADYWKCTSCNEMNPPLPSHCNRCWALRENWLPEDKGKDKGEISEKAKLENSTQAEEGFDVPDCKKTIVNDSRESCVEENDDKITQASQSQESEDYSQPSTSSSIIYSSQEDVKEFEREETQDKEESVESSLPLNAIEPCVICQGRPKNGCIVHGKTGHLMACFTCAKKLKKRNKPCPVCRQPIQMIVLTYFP

For “mouse double minute 2 (MDM2), endogenous in HEK293 cells (from UniProt Q00987 1-491) (enzyme)”, the binding [1] was “binds”.

For “p21, endogenous in HEK293 cells (from UniProt P38936 1-164)”, the binding [2] was “binds”.

For “FLAG-tagged p21 T55A (from UniProt P38936 1-164)”, the binding (HA-CDK4) was “binds”.

“p21 deletion construct 71–164 (amino acids 71–164) (from UniProt P38936 71-164) (domain or fragment)” was tested, and the binding [3] was “no binding”.

For “p21 deletion construct 46–71 (amino acids 46–71) (from UniProt P38936 46-71) (domain or fragment)”, the binding [3] was “binds”.

For “FLAG-tagged p21 (wild type) (from UniProt P38936 1-164)”, the binding [4] was “no binding”, the binding [3] was “binds” and the binding [5] was “binds”. For the same molecule, the binding [6] was “binds”, the binding [7] was “no binding (condition: in the cytosolic fraction)” and the binding [8] was “binds”. For the same molecule, the binding [9] was “binds”.

With “p21 deletion construct 141–164 (amino acids 141–164) (from UniProt P38936 141-164) (domain or fragment)” the binding [3] was “no binding”.

“in vitro-translated 35S-labeled wild-type p21 (from UniProt P38936 1-164)” was tested, and the binding [10] was “no binding”, the binding [11] was “binds” and the binding [12] was “binds”.

B1: p21, endogenous in mouse cells (NIH 3T3, 3T3-L1, MEF) (protein, UniProt P39689 1-159)
chain: MSNPGDVRPVPHRSKVCRCLFGPVDSEQLRRDCDALMAGCLQEARERWNFDFVTETPLEGNFVWERVRSLGLPKVYLSPGSRSRDDLGGDKRPSTSSALLQGPAPEDHVALSLSCTLVSERPEDSPGGPGTSQGRKRRQTSLTDFYHSKRRLVFCKRKP
With B1 the binding [13] was “binds” and the binding [14] was “binds”.
